# Source: PubChem BioAssay AID686970 (National Center for Advancing Translational Sciences (NCATS), 2013)
# About 6,000 (1.7%) of roughly 360,000 compounds were called active. This list was built around the results that the source calls inconclusive (neither active nor inactive); the mix of calls is not that of the screen. Calls follow the shape of the dose curve; as a rule, active = well fitted cell-killing curve with a large enough effect; inconclusive = small, poorly fitted or top-dose-only effect, or effect the other way; inactive = flat fitted curve, though single readings scatter. No potency is given beside an inconclusive call; the fits are too rough.
# Assay: qHTS for induction of synthetic lethality in tumor cells producing 2HG: qHTS for the HT-1080-NT fibrosarcoma cell line;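 also: NT is the 2HG producing partner of a matched IDH1 knockdown line; nearly all actives have a fitted effect of over 55% in size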;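 as to activity, negative = less viability: 0% = DMSO-treated cells and -100% = media-only wells without cells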
# Settings: HT-1080-NT fibrosarcoma viability, CellTiter-Glo ATP luminescence, 48 h; activity, negative = less viability: at 46.1 µM (top of the series) unless noted
# Summary of the method: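 Viability of the 2HG-overproducing fibrosarcoma line after 48 hours of compound exposure at 37 degrees C was determined by luminescence with CellTiter-Glo, and concentration-effect curves were then fitted and categorized.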
# Potency is read from the fitted curve at half-maximal effect; tags tell the direction and shape of the fitted curve.
SMILES,"activity, negative = less viability",Potency
Cn1cnnc1Sc1ccc(/C=C(\CC(=O)O)c2nc3ccccc3s2)cc1[N+](=O)[O-],inconclusive: 32.9%,
Nc1ccc(Cc2nc3cc4ccccc4cc3[nH]2)cc1,,"inconclusive [cytotoxic, partial curve]"
O=C(NCc1ccccc1OC(F)(F)F)C1CCC(=O)N(CCc2ccccn2)C1 (stereo not drawn),,inactive
Cc1cc(NC(=O)Cn2nnc3sc4c(c3c2=O)CCC(C(C)(C)C)C4)no1 (stereo not drawn),,"inconclusive [cytotoxic, single point]"
C=CCN1C(c2ccc(OCC)cc2)=CS/C1=C(\C#N)c1nnc2n1CCCCC2,,"inconclusive [cytotoxic, single point]"
Cc1nn(CC(=O)Nc2ccc3c(c2)nc(CCN2CCCCC2)n3C)c(=O)c2ccccc12,,"inconclusive [cytotoxic, single point]"
COc1cc(/C=N/Nc2ccccc2)ccc1O,,"inconclusive [cytotoxic, partial curve]"
O=C(/C=C/c1ccccc1Cl)N(c1ccccn1)C1CCCCC1,,"inconclusive [rising, partial curve, poor fit]"
COc1ccc(-c2nn(-c3ccccc3)cc2C(=O)N(C)CC(=O)Nc2ccccc2Br)cc1,,inactive
CC1(C(=O)Nc2cnc3ccccc3c2)CCN1CCc1ccccc1 (stereo not drawn),,"inconclusive [cytotoxic, single point]"
COc1cccc(N2CCN(c3nc(-c4ccccc4C)cc(=O)[nH]3)CC2)c1,,"inconclusive [cytotoxic, single point]"
CCOC(=O)CSc1nc2ccccc2c(=O)n1CCN1CCOCC1,,inactive
CN1CCN(CCCOc2ccc(-c3ccccc3)cc2)CC1,,active: 23.1 µM
O=C1Nc2ccccc2N=C(c2ccc3c(c2)OCO3)C1N(C(=O)c1ccnc2ccccc12)c1ccccc1 (stereo not drawn),,"inconclusive [cytotoxic, single point]"
CSc1ccc(CN2C(=O)C(C)Sc3ccc(C(C)=O)cc32)cc1 (stereo not drawn),inconclusive: -30.3% [cytotoxic],
CSc1nsc(SCC(=O)N2CCCc3ccccc32)n1,,inactive
COc1ccc(S(=O)(=O)N2CCCCC2)cc1NC(=O)c1ccc2ccccc2n1,,inactive
CC1(Cc2cc(Cl)ccc2C(F)(F)F)C(=O)Nc2ccc(-c3ccc(F)c(Cl)c3)cc21 (stereo not drawn),,"inconclusive [cytotoxic, single point]"
N#Cc1cc(C(=O)c2cc(Br)ccc2O)cn(Cc2ccccc2)c1=O,,"inconclusive [cytotoxic, partial curve]"
O=C(N/N=C/c1ccc([N+](=O)[O-])o1)c1cc(-c2ccc(-c3ccccc3)cc2)nc2ccccc12,,"inconclusive [cytotoxic, full curve]"
Cc1ccc(C)c(CN2C(=O)c3ccccc3S(=O)c3ccc(C(=O)N4CCN(c5ccccn5)CC4)cc32)c1 (stereo not drawn),inconclusive: -21.3% [cytotoxic],
O=C(COc1ccc(Cl)cc1)Nc1ccc(C(=O)NCc2cccnc2)cc1,,"inconclusive [cytotoxic, single point]"

SMILES,"activity, negative = less viability",Potency
CCCOc1ccc(F)cc1-c1cc(C(=O)NCc2ccc(C(F)(F)F)cc2)[nH]n1,inconclusive: -35.2%,
O=C(O)c1cc([N+](=O)[O-])ccc1NCCO,,"inconclusive [rising, single point]"
O=C(CCn1c(=O)c2cccn2c2ccccc21)Nc1ccc(F)cc1,,"inconclusive [cytotoxic, single point]"
Cn1ncc(Cl)c1C(=O)N1CCN(C23CC4CC(CC(C4)C2)C3)CC1,,"inconclusive [cytotoxic, partial curve, poor fit]"
CCOC(=O)c1c(NC(=O)/C=C\C(=O)O)sc(C)c1-c1ccccc1,,"inconclusive [cytotoxic, partial curve]"
COc1cc(-c2cc(NC=O)c3ncc(-c4ccc(F)cc4)n3c2)cc(OC)c1OC,,"inconclusive [cytotoxic, partial curve]"
O=C(OCn1ncc(Cl)c(Cl)c1=O)c1ccccc1Cl,,active: 7.31 µM
COc1ccccc1Nc1nc(NCc2ccco2)c2ccccc2n1,,active: 20.6 µM
CC(C)C[C@@H](CNC(=O)OC(C)(C)C)NC(=O)c1nc[nH]c1C(=O)N[C@@H](CC(C)C)C(=O)CNC[C@H](CC(C)C)NC(=O)c1nc[nH]c1C(=O)N[C@@H](Cc1c[nH]c2ccccc12)C(=O)OC(C)(C)C,,"inconclusive [cytotoxic, partial curve]"
Cc1ccc(C)c(CSC2=NCCN2C(=O)Cc2ccc([N+](=O)[O-])cc2)c1,,"inconclusive [cytotoxic, single point]"
CNS(=O)(=O)c1ccc(NC(=O)Nc2ccc3c(c2)OCO3)cc1,,"inconclusive [cytotoxic, single point]"
Oc1ccccc1C1=NN(c2ccccc2)C(c2ccccc2)C1 (stereo not drawn),,"inconclusive [cytotoxic, single point]"
COC(=O)[C@H](CC(C)C)N(Cc1ccccc1)S(=O)(=O)N(Cc1ccccc1)[C@@H](CC(C)C)C(=O)OC,,inactive
COc1cccc(CNc2nc(C(F)(F)F)nc3ccccc23)c1,,active: 23.1 µM
CN(C)S(=O)(=O)c1ccc(N2CCN(S(=O)(=O)c3ccc(F)cc3)CC2)c(Cl)c1,,active: 10 µM
CCOC(=O)C1(Cc2ccccc2C)CCCN(C(=O)c2cc(C3CC3)[nH]n2)C1 (stereo not drawn),,inactive
O=c1ccc(-c2nc3cc(Cl)ccc3n2Cc2ccccc2)c[nH]1,,inactive
CCc1c(C)nc2ncnn2c1N1CCC(C(=O)Nc2ccc(C)cc2)CC1,,"inconclusive [cytotoxic, full curve, poor fit]"
COc1ccccc1/C=N/N1CCN(Cc2ccccc2Cl)CC1,,"inconclusive [rising, single point]"
c1ccc(-c2ccc(-c3nc(-c4ccccn4)no3)cc2)cc1,,active: 10 µM
O=C(Nc1cccc(Cl)c1N1CCCC1)c1ccc([N+](=O)[O-])o1,,inactive
